The record followed here is PubChem BioAssay (NCATS).

Some of the results follow. Further columns of the screen follow, without active or inactive calls. Most of these compounds were active or inconclusive in the main read-out, so they are no random draw. Potencies come from curve fits of mixed quality, noted in brackets.
Tags describe the fitted curve by direction and shape.

The target in the test is Nicotinamide N-methyltransferase (Homo sapiens) (UniProt P40261). As to the kind of experiment: Confirmatory Screen for Target Class Profiling of Small Molecule Inhibitors of Methyltransferases (AID 1745852).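 Further: inhibitor potency for blocking SAH production.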 The note with it: MTase-Glo luminescence, SAH detection, recombinant enzyme; measured here: NNMT inhibition potency.
UniProt P40261, sequence (P40261 whole entry, looked up): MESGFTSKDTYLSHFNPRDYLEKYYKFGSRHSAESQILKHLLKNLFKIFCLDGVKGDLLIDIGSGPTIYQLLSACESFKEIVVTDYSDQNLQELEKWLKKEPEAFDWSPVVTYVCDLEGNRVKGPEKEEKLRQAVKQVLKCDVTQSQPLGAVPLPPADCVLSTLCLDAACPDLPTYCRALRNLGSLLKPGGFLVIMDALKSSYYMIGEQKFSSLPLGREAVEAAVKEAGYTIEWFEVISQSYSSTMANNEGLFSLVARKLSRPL
The term IC50 denotes the concentration at which inhibition is half-maximal. With `CC(CNC(=O)CCc1nnc2n(Cc3ccc(F)cc3)c(=O)c3ccccc3n12)c1ccccc1` (stereo not given), the half-maximal inhibitory concentration (IC50) is 19.2 µM [falling, partial curve].
Consider `CC[C@H]1CN(c2nc(N)c(C(N)=O)nc2Cl)CCN1C1CCN(Cc2ccc(Cl)cc2)CC1`, for which the half-maximal inhibitory concentration (IC50) was 10.5 µM [falling, partial curve].
`Cc1cc(F)ccc1NS(=O)(=O)c1ccc2[nH]c3c(c2c1)CCCC3`: the half-maximal inhibitory concentration (IC50) was 15.2 µM [falling, partial curve].
For the compound `O=C1NC(=O)C(c2cnc3ccccn23)=C1c1cn2c3c(cc(F)cc13)CN(C(=O)N1CCCCC1)CC2`, the IC50 was 21.5 µM [falling, partial curve].
With `O=S(=O)(Nc1cc(Cl)c(Oc2cnc3ccccc3c2)c(Cl)c1)c1ccc(Cl)cc1Cl`, the IC50 was 24.1 µM [falling, partial curve].
For `COc1ccc(CCc2nc3c(C)c(-c4c(C)noc4C)c(C)cc3n2CCN2CCOCC2)cc1`, the IC50 is 34.1 µM [falling, partial curve, poor fit].
In the case of `c1ccc(CNc2cc(-c3cc(N4CCCCC4)ncn3)c3cc[nH]c3n2)nc1` it was 27.1 µM [falling, partial curve, poor fit]; in that of `Cc1coc2c1C(=O)C(=O)c1c-2ccc2c1CCCC2(C)C`, 12.1 µM [falling, partial curve]; in that of `COc1ccccc1CNC(=O)C1(C)Cn2c(cc3ccccc32)C(=O)N1Cc1ccc(OC)c(OC)c1` (stereo not given), 7.64 µM [falling, full curve].
`O=C(NCc1cccc(Cl)c1)c1sc(=S)n2c1[nH]c(=O)c1cc3c(cc12)OCO3`: the IC50 is 24.1 µM [falling, partial curve].
